Test results as given in PubChem BioAssay AID504466 (National Center for Advancing Translational Sciences (NCATS), 2011).
In all, about 330,000 compounds went through this assay and about 4,200 (1.3%) were called active. Inconclusive means that the source gave no clear call. Such entries were picked first, then a sample of the others. Calls come from the whole dose curve; as a rule, active = well fitted activation curve with a large enough effect; inconclusive = small, poorly fitted or top-dose-only effect; inactive = no such curve, though single readings can be large or run the other way. Potencies beside an inconclusive call are fits to weak or partial responses and may not hold up.

Test: qHTS screen for small molecules that induce genotoxicity in human embryonic kidney (HEK293T) cells expressing luciferase-tagged ELG1; note: nearly all actives have a fitted effect of over 60% in size; for activity change, positive = activation: % of control where 0% means no effect
Settings: HEK293T ELG1-luciferase reporter, luminescence, 16 h; series mostly up to 46 µM; activity change, positive = activation: at the top concentration
How it was run: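 HEK293T cells expressing luciferase-tagged ELG1 were treated with compound or DMSO for 16 hr at 37°C. Luciferase activity was then read after 30 min with ONE-Glo at room temperature; rising signal flags genetic stress.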
Potency is the fitted concentration of half-maximal effect; tags give direction and shape of the fitted curve.

Compound | Potency | activity change, positive = activation
O=C(c1ccccc1)c1cc2ccccc2o1 | inconclusive: 11.6 µM [activator, partial curve] | –
COCc1nc2ccccc2n1Cc1ccccc1 | inconclusive: 16.4 µM [activator, partial curve, poor fit] | –
O=C(N/N=C/c1c[nH]c2ccccc12)c1[nH]c2ccc(Br)cc2c1-c1ccccc1 | inconclusive: 3.66 µM [activator, partial curve, poor fit] | –
Cc1nc2ccc(NC(=O)CS(=O)(=O)c3ccccc3)cc2s1 | inconclusive: 16.4 µM [activator, partial curve, poor fit] | –
N#Cc1sc2nc(-c3ccccc3)cc(C(F)(F)F)c2c1N | – | inactive: 6.26%
O=C(Nc1cccc(O)c1)c1ccc(NC(=O)c2cccs2)cc1 | inconclusive: 2.91 µM [activator, full curve, poor fit] | –
N#C/C(=C\c1ccc(OCC(N)=O)cc1)c1ccccc1 | inconclusive: 23.1 µM [activator, partial curve, poor fit] | –
CCOC(=O)c1sc2nc3n(c(=O)c2c1C)CCCCC3 | inconclusive: 10.3 µM [activator, partial curve] | –
Cc1ccc(NC(=O)c2ccccc2OCc2ccc([N+](=O)[O-])cc2)nc1 | inconclusive: 18.3 µM [activator, single point] | –
CCCCN(C(=O)COC(=O)c1ccc(C=O)cc1)c1c(N)n(CCC)c(=O)[nH]c1=O | – | inactive: -1.2%
C/C(=N\Nc1ccc([N+](=O)[O-])cc1)c1ccc(O)cc1 | inconclusive: 16.4 µM [activator, partial curve, poor fit] | –
COc1ccc(CNC(=O)Nc2ccccc2)cc1 | inconclusive: 20.6 µM [activator, partial curve, poor fit] | –
O=C(NC(=S)Nc1c(F)cc(F)cc1Br)c1ccc2c(c1)OCCO2 | – | inactive: 4.32%
Cc1nc2cc(NC(=O)N3c4ccccc4CC3C)ccc2o1 (stereo unspecified) | active: 3.26 µM | –
Cc1ccnc(NC(=O)c2sc3cc(Cl)ccc3c2Cl)c1 | active: 2.91 µM | –
Cc1ccc(C(=O)Nc2nc3c(s2)CCCC3)o1 | active: 1.16 µM | –
COc1ccc(OCCOc2ccccc2[N+](=O)[O-])cc1 | inconclusive: 16.4 µM [activator, partial curve, poor fit] | –
CCN(CC)C(=O)COc1ccc(/C(C)=N/NC(=O)c2ccccc2Br)cc1 | – | inactive: 0.458%
O=C(c1cc(COc2ccc(F)cc2F)on1)N1CCOCC1 | inconclusive: 20.6 µM [activator, single point] | –
Cn1c(SCC(=O)Nc2ccc(NC(=O)c3cccc(F)c3)cc2)nnc1-c1ccncc1 | inconclusive: 20.6 µM [activator, single point] | –
O=C(CSc1nnc(NC(=O)c2ccccc2F)s1)NCc1ccco1 | active: 16.4 µM | –
Clc1ccc(Nc2ncnc3c2cnn3-c2ccccc2)cc1 | active: 11.6 µM | –
COC(=O)c1cc(S(=O)(=O)N2CCN(c3ccc(F)cc3)CC2)cn1C | – | inactive: -7.58%
C(=N\N1CCN(c2ccccn2)CC1)/c1ccccn1 | inconclusive: 16.4 µM [activator, partial curve, poor fit] | –
CNc1ncc(C(=O)c2ccc(Br)cc2)s1 | inconclusive: 6.51 µM [activator, partial curve] | –
CCCc1cc(C(=O)Nc2ccc(F)c(Cl)c2)no1 | inconclusive: 20.6 µM [activator, single point] | –

Compound | Potency | activity change, positive = activation
CCc1cc(C(N)=O)c(NC(=O)c2ccc(OC)cc2)s1 | inconclusive: 20.6 µM [activator, partial curve, poor fit] | –
O=C(/C=C/c1cccc(F)c1)Nc1nccs1 | inconclusive: 5.17 µM [activator, partial curve] | –
COc1ccc(CNC(=O)CSc2ccsc2[N+](=O)[O-])cc1 | inconclusive: 16.4 µM [activator, partial curve] | –
CC(=O)c1cccc(NC(=S)NC(=O)c2ccc(C)cc2)c1 | inconclusive: 5.8 µM [activator, partial curve] | –
Cc1ccc2c(COC(=O)CNC(=O)c3ccccc3)cc(=O)oc2c1 | – | inactive: 12.1%
O=C(Nc1ccc2ccccc2c1)c1ccccc1O | active: 0.231 µM | –
CCN(Cc1ccccc1)C(=O)c1cc(-c2ccc(OC)c(OC)c2)nc2ccccc12 | – | inactive: 9.05%
CCSc1nnc(NC(=O)NC2CCCCC2)s1 | inconclusive: 6.51 µM [activator, single point] | –
CC(C)c1ccccc1NC(=O)c1ccc2ncsc2c1 | – | inactive: 13.2%
Cc1ccnc(N/N=C/c2ccco2)n1 | inconclusive: 13 µM [activator, partial curve] | –
O=C(O)COc1cccc(NC(=O)c2ccccc2)c1 | – | inactive: -1.11%
COc1ccc2c(c1OC)C(=O)N(c1cccc(NC(C)=O)c1)C2 | inconclusive: 32.6 µM [activator, partial curve, poor fit] | –
CC(C)C(=O)N1CCN(c2ccc(NC(=O)COc3ccccc3[N+](=O)[O-])cc2)CC1 | – | inactive: -25.5%
COc1ccc(S(=O)(=O)N2CCC(C(=O)NCCC(=O)Nc3ccc(Cl)cc3)CC2)cc1 | – | inactive: 0.311%
O=C1/C(=C/c2cccc(F)c2)CSc2sccc21 | – | inactive: 3.37%
Cc1ccc(-n2c(C)nc3oc4ccccc4c(=O)c3c2=O)cc1 | inconclusive: 6.51 µM [activator, partial curve, poor fit] | –
COc1ccccc1/C=C/C(=O)NCC(=O)N/N=C(/C)c1ccco1 | – | inactive: -6.29%
CCN1C(=S)SC(=O)C1=C1C=C(C)N(CCO)C(C)=C1 | active: 5.17 µM | –
COC(=O)c1cc(C#N)c(N(C)Cc2ccccc2)nc1C | inconclusive: 32.6 µM [activator, partial curve, poor fit] | –
Cc1ccc(/C=C/C(=O)NCc2cccs2)c(C)c1 | inconclusive: 9.2 µM [activator, partial curve, poor fit] | –
O=C(c1cc(-c2ccccc2)on1)N1CCN(C(=O)c2ccco2)CC1 | inconclusive: 29.1 µM [activator, partial curve, poor fit] | –
O=C(/C=C/c1ccccc1)Nc1cccnc1Oc1ccccc1F | – | inactive: 8.95%
N#Cc1c(/N=C/c2cccs2)sc2c1CCC2 | active: 7.08 µM | –
O=C(CSc1ncnc2c1oc1ccccc12)c1cccs1 | inconclusive: 8.2 µM [activator, partial curve, poor fit] | –
O=C(N/N=C\c1cc2c(cc1Cl)OCO2)c1ccc(Br)s1 | inconclusive: 20.6 µM [activator, partial curve] | –
O=c1c2[nH]cnc2n(-c2cccc(F)c2)c(=O)n1Cc1ccccc1 | inconclusive: 20.6 µM [activator, partial curve, poor fit] | –

Compound | Potency | activity change, positive = activation
CC1(C)Oc2ccc(/C=C/C(=O)N3CCOCC3)c(O)c2C(N2CCOCC2)C1O (stereo unspecified) | – | inactive: 8.9%
Cc1ccc(C)n1-c1cccc(C(=O)Nc2ccccc2)c1 | inconclusive: 23.1 µM [activator, partial curve, poor fit] | –
Cc1cc2c(cc(C(=O)OCC(=O)NCc3cccs3)n2C(C)C)o1 | inconclusive: 12.6 µM [activator, single point] | –
CC(C)OC(=O)c1cccc(C(=O)Nc2cccc(NC(=O)c3cccc(C(=O)OC(C)C)n3)n2)n1 | – | inactive: -10.2%
C=CCc1ccc(OCCCOc2ccc(C)c(C)c2)c(OC)c1 | – | inactive: -1.57%
COc1ccc(OCc2cc(C(=O)N(Cc3nccn3C)C(C)C)no2)c2ccccc12 | – | inactive: 12.9%
OCc1nc2c(ccc3ccccc32)[nH]1 | – | inactive: 2.5%
O=C(NCCOc1ccccc1)c1ccccc1 | active: 1.64 µM | –
Cc1c(N(C(=O)CNC(=O)c2ccccc2)C2(C(=O)NC3CCCC3)CCCCC2)c(=O)n(-c2ccccc2)n1C | inconclusive: 4.61 µM [activator, single point] | –
Cc1cc(NC(=O)CSc2nc3cc(Cl)ccc3c(=O)n2Cc2ccco2)no1 | inconclusive: 35.5 µM [activator, partial curve, poor fit] | –
CCCNC(=O)[C@H]1N2C(=O)c3c(ccc(OC)c3OC)C2SC1(C)C (stereo partly specified) | – | inactive: -1.42%
O=c1oc2ccccc2cc1-c1ccc(O)cc1 | inconclusive: 29.1 µM [activator, single point] | –
Cn1c(/C(C#N)=C/C2CC=CCC2)nc2ccccc21 (stereo unspecified) | inconclusive: 16.4 µM [activator, single point] | –
COc1ccc(-c2nnc(SCc3ccccc3F)o2)cc1 | active: 1.03 µM | –
COc1ccc(Cl)cc1C(=O)NNC(=O)c1cccc([N+](=O)[O-])c1 | inconclusive: 32.6 µM [activator, partial curve, poor fit] | –
CN(C)c1ccc(C(=O)N/N=C/c2ccccn2)cc1 | inconclusive: 7.3 µM [activator, partial curve] | –
CCCCCCN1C=CC(=C2C(=O)c3ccccc3C2=O)C=C1 | active: 0.184 µM | –
N#Cc1cc2c(nc1SCC(=O)O)CCCCC2 | – | inactive: 0.567%
CCOc1ccc(/C=N/Nc2ccccn2)cc1OC | active: 20.6 µM | –
O=C(Nc1nc2c(s1)CCCC2)c1cccs1 | inconclusive: 0.501 µM [activator, full curve, poor fit] | –
CCn1c(SCC(=O)c2cc(C)n(CC3CCCO3)c2C)nc2ccccc21 (stereo unspecified) | – | inactive: 6.05%
COc1cc(C(=O)NNC(=O)COc2ccc(Cl)cc2)ccc1OCC(=O)N1CCOCC1 | – | inactive: 0.922%
COc1cc(S(=O)(=O)N2CCOCC2)cc(C(=O)OCC(=O)NCc2ccco2)c1OC | – | inactive: 2.04%
Cc1cc(SCC(=O)N/N=C/c2ccc(O)cc2O)nc2ccccc12 | inconclusive: 25.9 µM [activator, single point] | –
